# PubChem BioAssay AID1345082 (National Center for Advancing Translational Sciences (NCATS), 2018)
# Screen size: about 94,000 compounds; about 4,000 (4.3%) were called active. The inconclusive results got no clear call from the source; some entries with a clear call stand among them for comparison. Calls follow the shape of the dose curve; as a rule, active = well fitted inhibition curve with a large enough effect; inconclusive = small, poorly fitted or top-dose-only effect; inactive = no such curve, though single readings can be large or run the other way. Potencies beside an inconclusive call are fits to weak or partial responses and may not hold up.
# Experiment: Cytotoxic Profiling in NIH 3T3 Cell Line of Diverse Libraries Using Quantitative High-Throughput Screening; also: nearly all actives have a fitted effect of over 55% in size
# Details: NIH 3T3 viability, CellTiter-Glo ATP luminescence, 48-72 h; series mostly up to 96.7 µM
# Method in brief: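 First NIH 3T3 cells are plated at 400 cells/well; next compound is pinned in; then plates incubate 48 or 72 hr at 37 °C; finally CellTiter-Glo is added and luminescence read after 10 min.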
# Potency is read from the fitted curve at half-maximal effect; tags tell the direction and shape of the fitted curve.
row,SMILES,Potency
1,CNC(=O)C1CCN(C(=O)c2ccc(-c3ccccc3OC)cc2)CC1,inactive
2,CCN1c2cc(C(=O)Nc3ccc(OC)c(OC)c3)ccc2C(=O)N2CCCC21 (stereo not drawn),inactive
3,Cc1ccc(CNC(=O)CCc2nc(C3CCCN3S(C)(=O)=O)no2)o1 (stereo not drawn),inactive
4,CC(C)NC(=O)NC1CCN(Cc2cccc(-c3cccs3)c2)CC1,"inconclusive: 50.1 µM [inhibitor, partial curve, poor fit]"
5,O=C(CCCc1ccccc1)N1CCC2(CC1)CN(C1CCC1)CC2CO (stereo not drawn),"inconclusive: 79.4 µM [inhibitor, single point]"
6,COc1cccc(F)c1-c1ncc2c(n1)OCCN(c1cccc(C(F)(F)F)c1)C2=O,"inconclusive: 89.1 µM [inhibitor, partial curve, poor fit]"
7,O=C(c1cnn2c1CCCC2)N1CCC(c2[nH]ncc2-c2ccccc2)CC1,"inconclusive: 50.1 µM [inhibitor, partial curve, poor fit]"
8,O=C1CCCCCN1C1CCN(Cc2ccc(C(F)(F)F)cc2)CC1,"inconclusive: 39.8 µM [inhibitor, partial curve, poor fit]"
9,COc1ccccc1C1CCN(Cc2cn(-c3ccccc3)nn2)CC1,"inconclusive: 39.8 µM [inhibitor, partial curve, poor fit]"
10,CNC(=O)c1cc(C)nc2onc(C3CCCN(C(=O)c4cccnc4)C3)c12 (stereo not drawn),inactive
11,CCCN1C(=O)CCc2cc(NC(=O)CCOC)ccc21,inactive
12,Cc1ccc(-c2c(C(=O)NCC(C)C)nc3sccn23)cc1,"inconclusive: 44.7 µM [inhibitor, partial curve, poor fit]"
13,CCn1cc(S(=O)(=O)N2CCC(c3noc(-c4ccccc4)n3)C2)cn1 (stereo not drawn),"inconclusive: 28.2 µM [inhibitor, partial curve, poor fit]"
14,COc1ccc(CCC(=O)N2CCn3nnc(CCC(=O)N4CCCC4)c3C2)cc1,inactive
15,COc1ccc(C(=O)N2CCc3nc(-c4ccc(Cl)cc4)nc(-c4ccccc4)c3C2)cc1,"inconclusive: 44.7 µM [inhibitor, partial curve, poor fit]"
16,O=C(NC1CCN(c2cc(-c3ccccc3)[nH]n2)CC1)c1cc(Cl)ccc1F,"inconclusive: 50.1 µM [inhibitor, partial curve, poor fit]"
17,O=C(NC1CCOC2(CCOCC2)C1)c1cnc2c(O)cccn2c1=O (stereo not drawn),"inconclusive: 50.1 µM [inhibitor, partial curve, poor fit]"
18,O=C(c1ccc(C(F)(F)F)cc1)N1CCN(C(=O)c2nc3cccnc3n(C3CCCC3)c2=O)CC1,"inconclusive: 50.1 µM [inhibitor, partial curve, poor fit]"
